For assay [1], the target named is T1, brain-derived neurotrophic factor (BDNF) (UniProt P23560 129-247).
T1 sequence (looked up): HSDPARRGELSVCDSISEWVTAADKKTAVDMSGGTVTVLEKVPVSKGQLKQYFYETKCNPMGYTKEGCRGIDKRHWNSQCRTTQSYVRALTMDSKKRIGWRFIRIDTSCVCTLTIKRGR
In words: SPR (Biacore), corresponding figures for the reference fusion protein.

In assay [2] the target is T2, neurotrophin-3 (NT-3) (UniProt P20783 139-257).
T2 sequence (looked up): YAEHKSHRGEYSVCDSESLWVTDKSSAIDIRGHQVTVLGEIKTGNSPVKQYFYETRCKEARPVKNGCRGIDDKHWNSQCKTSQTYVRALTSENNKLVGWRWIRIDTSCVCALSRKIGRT
Described as above.

In assay [3] the target is T3, nerve growth factor (NGF) (UniProt P01138 partial chain, limits assumed). Described as above.
Assay [4] deals with T4, neurotrophin-4 (NT-4) (UniProt P34130 81-210).
T4 construct: also called NT-4/5; NT4/5
T4 sequence (looked up): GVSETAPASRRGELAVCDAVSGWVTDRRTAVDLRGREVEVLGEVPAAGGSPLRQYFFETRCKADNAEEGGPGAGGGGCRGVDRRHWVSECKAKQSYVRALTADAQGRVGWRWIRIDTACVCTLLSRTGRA
The description is as above.

Assay [5] concerns the target T1, brain-derived neurotrophic factor (BDNF). In words: SPR (Biacore T200), fusion protein captured on Protein A chip, single cycle kinetics, 1:1 model. (In SPR one partner is held on a chip, and binding of the other changes the refractive index at the surface.)
The target in assay [6] is T2, neurotrophin-3 (NT-3). The assay is described as above.
Assay [7] addresses T3, nerve growth factor (NGF). The assay is described as above.
For assay [8], the target named is T4, neurotrophin-4 (NT-4). The assay is described as above.
Assay [9] addresses T2, neurotrophin-3 (NT-3). In words: cell-based or functional assay.
Assay [10] addresses T3, nerve growth factor (NGF). In words: cell-based or functional assay.
Assay [11] has as its target T4, neurotrophin-4 (NT-4). Briefly: cell-based or functional assay.

T3 sequence (P01138 122-241 limits assumed): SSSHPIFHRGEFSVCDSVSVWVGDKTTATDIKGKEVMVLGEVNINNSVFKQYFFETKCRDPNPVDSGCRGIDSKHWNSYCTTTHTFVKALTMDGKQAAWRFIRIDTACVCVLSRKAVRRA

B1: p75NTR(NBP)-Fc fusion including stalk region (SEQ ID No. 3) (Fc fusion)
chain: KEACPTGLYTHSGECCKACNLGEGVAQPCGANQTVCEPCLDSVTFSDVVSATEPCKPCTECVGLQSMSAPCVEADDAVCRCAYGYYQDETTGRCEACRVCEAGSGLVFSCQDKQNTVCEECPDGTYSDEANHVDPCLPCTVCEDTERQLRECTRWADAECEEIPGRWITRSTPPEGSDSTAPSTQEPEAPPEQDLIASTVAGVVTTVMGGGG[human IgG1 Fc with changes not shown]
notes: also called p75NTR-Fc
As a reminder, the Kd is the free concentration of one partner at which half of the binding sites on the other are occupied at equilibrium, for simple one-to-one binding. The low end stands for tighter binding, the high end for weaker binding. For B1, the Kd in [1] turned out to be 0.048 nM; in the assay with neurotrophin-3 (NT-3) [2], 0.014 nM; in assay [3] it was 0.525 nM; in the assay with neurotrophin-4 (NT-4) [4], 0.181 nM.

B2: Truncated p75NTR(NBP)-Fc fusion protein (SEQ ID No. 1) (Fc fusion)
chain: KEACPTGLYTHSGECCKACNLGEGVAQPCGANQTVCEPCLDSVTFSDVVSATEPCKPCTECVGLQSMSAPCVEADDAVCRCAYGYYQDETTGRCEACRVCEAGSGLVFSCQDKQNTVCEECPDGTYSDEANHVDPCLPCTVCEDTERQLRECTRWADAECEEIPGGGG[human IgG1 Fc with changes not shown]
notes: The Rmax calculation uses a fusion protein molecular weight of 87,000; also called Truncated p75NTR-Fc; Truncated p75-Fc
On to B2, for which the Kd in assay [5] came to 0.05 nM; in the assay with neurotrophin-3 (NT-3) [6], 0.02 nM; in [7], 0.5 nM; with neurotrophin-4 (NT-4) [8], 0.1 nM. Besides, the “IC50, inhibition of NT-3-induced activation of TrkC” value in the assay with neurotrophin-3 (NT-3) [9] was 0.5 nM. In addition, the “IC50, inhibition of NGF-induced activation of TrkA” value in assay [10] was 1.5 nM. Further, the “IC50, inhibition of NT-4-induced activation of TrkB” value with neurotrophin-4 (NT-4) [11] amounted to 1 nM.

The record behind these values is patent US20180170995A1 (LEVICEPT, published 2018).
